Molecular target: T1, XRCC4-WT (human, UniProt Q13426 1-336)
T1 construct: full-length (WT) protein; also called wild-type XRCC4; WT XRCC4; source: produced in bacteria, purified (procedures as described in Andres et al., 2012, 2007)
Experiment: cross-linking; XRCC4 and XLF each at 20 μM, no DNA; 150 mM KCl, 20 HEPES pH 8, 1 mM EDTA, 2 mM DTT, 10% glycerol; 20 min at 4°C, then BS3, 1 hr at room temperature; reducing SDS-PAGE, Coomassie
Details: both partners purified

T1 sequence (Q13426 whole entry): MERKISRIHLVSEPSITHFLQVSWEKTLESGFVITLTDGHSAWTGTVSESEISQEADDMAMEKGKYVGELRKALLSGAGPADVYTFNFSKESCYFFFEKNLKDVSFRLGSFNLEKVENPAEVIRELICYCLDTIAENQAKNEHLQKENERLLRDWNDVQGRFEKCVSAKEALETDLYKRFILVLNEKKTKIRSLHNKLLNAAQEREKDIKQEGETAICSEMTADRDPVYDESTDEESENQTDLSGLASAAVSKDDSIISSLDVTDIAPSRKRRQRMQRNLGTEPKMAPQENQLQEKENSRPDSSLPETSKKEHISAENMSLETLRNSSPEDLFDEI

B1: XLF-L115A (natural protein)
chain: not shown
notes: XLF, human, […], with the point mutation L115A; source: produced in bacteria, purified (procedures as described in Andres et al., 2012, 2007)
binding result: binds
